Test results reported in the supplement of paper PMC3334620.
Over roughly 33,000 sequences, “E-score (-0.5 to 0.5)” has its median near -0.035; the highest 2% begin near 0.35. The list shows a part of the results.

molecular target: T1, Pdr3 (UniProt P33200); assay: PBM E-score (8-mer binding enrichment) (E-score (-0.5 to 0.5)); higher = stronger / more preferred TF binding; most listed sequences are background and not binding sites; details: protein concentration: 200 nM; construct: GST-full length
T1 sequence: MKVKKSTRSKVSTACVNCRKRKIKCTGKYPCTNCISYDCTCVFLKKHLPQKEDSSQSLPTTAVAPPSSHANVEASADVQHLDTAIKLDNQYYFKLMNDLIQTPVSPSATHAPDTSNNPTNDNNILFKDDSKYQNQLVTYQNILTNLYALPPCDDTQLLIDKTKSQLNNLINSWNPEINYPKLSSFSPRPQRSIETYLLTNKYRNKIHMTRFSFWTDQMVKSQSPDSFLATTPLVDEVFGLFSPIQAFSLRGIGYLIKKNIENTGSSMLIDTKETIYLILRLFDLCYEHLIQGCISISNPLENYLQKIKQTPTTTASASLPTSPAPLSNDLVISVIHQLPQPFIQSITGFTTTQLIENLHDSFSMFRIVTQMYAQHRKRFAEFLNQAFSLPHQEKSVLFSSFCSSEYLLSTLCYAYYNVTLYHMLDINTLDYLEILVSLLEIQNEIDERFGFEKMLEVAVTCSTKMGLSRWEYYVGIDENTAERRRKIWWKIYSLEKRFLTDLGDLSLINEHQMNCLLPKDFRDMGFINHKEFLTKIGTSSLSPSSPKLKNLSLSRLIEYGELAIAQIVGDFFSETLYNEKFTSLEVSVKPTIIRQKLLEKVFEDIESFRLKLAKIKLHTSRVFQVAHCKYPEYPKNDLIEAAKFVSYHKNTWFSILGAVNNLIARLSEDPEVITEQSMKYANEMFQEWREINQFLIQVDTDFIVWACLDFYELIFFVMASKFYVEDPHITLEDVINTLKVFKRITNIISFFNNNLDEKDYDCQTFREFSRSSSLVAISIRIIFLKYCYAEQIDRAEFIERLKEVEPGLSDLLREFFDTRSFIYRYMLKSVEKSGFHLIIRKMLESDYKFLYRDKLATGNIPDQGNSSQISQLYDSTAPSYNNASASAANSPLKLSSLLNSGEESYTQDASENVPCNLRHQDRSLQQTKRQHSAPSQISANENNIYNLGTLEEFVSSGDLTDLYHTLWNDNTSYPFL
Summary of the method: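 Detection of bound protein used fluorescent anti-GST, with scans normalised by masliner. The proteins were GST-tagged yeast transcription factors applied at about 100-200 nM to universal all-10-mer Agilent arrays made double-stranded by primer extension. Each ungapped eight-base word, pooled with its reverse complement, was scored with an E-score from the Universal PBM Analysis Suite.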

Row | Sequence | PBM E-score
1 | CAGGCCAA | -0.043
2 | CCAAAGCG | -0.003
3 | ATATTGGG | 0.0357
4 | AGTTAACT | 0.0558
5 | CATGTCAA | -0.15
6 | GAATCAGC | -0.124
7 | AATGACCC | -0.14
8 | CTACGTCA | -0.182
9 | CACGTTAG | -0.205
10 | CACCAATC | 0.0933
11 | ACGAGTCT | -0.319
12 | CTGGCAGA | -0.109
13 | CCGTGTCG | 0.167
14 | ACAGAGCC | -0.128
15 | GTCAACTA | -0.0932
16 | ACAGCGGT | -0.091
17 | GGCGTTAA | -0.0748
18 | ATCACGGA | 0.391
19 | ACAATTCC | 0.171
20 | ACAACGAA | 0.0353
21 | CGCCGAAG | 0.178
22 | ACCACTGG | -0.0338

Row | Sequence | PBM E-score
23 | GCCCAGGC | -0.138
24 | ACTGCAAT | 0.0371
25 | ACTCGCGA | 0.0895
26 | GACGCGCC | 0.0769
27 | AGCAGCAG | -0.0507
28 | CGACCACA | -0.0427
29 | CTACGGAG | 0.246
30 | GCCAGACC | 0.018
31 | AGGGCTTG | -0.149
32 | CAAGCTAC | -0.157
33 | CGGGATAG | 0.31
34 | AGCTGGAG | -0.163
35 | ATGCGCCC | 0.101
36 | ATCGTTTA | -0.14
37 | CGTTGGGA | -0.166
38 | GACAGTAA | 0.08
39 | TGAATAAA | -0.228
40 | ATGAAGGG | -0.171
41 | CTATCGTA | -0.164
42 | CAATTTTC | 0.00449
43 | AGATCCTC | -0.0114
44 | ACCATGAG | -0.103

Row | Sequence | PBM E-score
45 | CAATGAAC | 0.00856
46 | ACACCACG | -0.161
47 | ATTATGGC | 0.104
48 | CAAAATGA | -0.138
49 | GTGGTATA | -0.0912
50 | AACATAAT | 0.0967
51 | CCTTATCC | 0.0832
52 | CCCCCTGA | -0.33
53 | ACGAGCAA | -0.179
54 | AGGGGGCA | -0.102
55 | CGATCCCA | 0.067
56 | AAGAAACT | -0.115
57 | ATCTGTTA | -0.0958
58 | CAGCGTTA | -0.215
59 | TAAATAAA | -0.153
60 | CGGACTTA | 0.171
61 | GACAGGTC | -0.108
62 | GCAGGCGA | -0.14
63 | CATCTACC | 0.0434
64 | ATAGTGCG | 0.163
65 | AACACGGA | 0.374
66 | ACTAAGTA | -0.174

Row | Sequence | PBM E-score
67 | AAGGGCGC | -0.0433
68 | CCGGCCAC | 0.271
69 | AGGTATGC | -0.0624
70 | AACTAGTG | -0.0901
71 | CGTCCGAG | 0.273
72 | CAATCCTA | -0.2
73 | AGTCGGGG | 0.0779
74 | AGACCTAG | -0.0267
75 | CCCCTAGC | -0.241
76 | GGCACGCA | 0.0129
77 | ACAGTAAC | -0.0828
78 | ACGCGGGG | 0.264
79 | CACTGCTA | -0.211
80 | CGACGAGC | -0.021
81 | ACTGGGGC | -0.117
82 | CCTTAAGC | -0.0555
83 | TCGGAGAA | 0.225
84 | AGGACATG | -0.15
85 | TCGAGCAA | 0.0559
86 | GGCTGACC | -0.112
87 | ATAGGCGA | 0.0545
88 | GATAACCA | 0.0306

Row | Sequence | PBM E-score
89 | AACAATCG | -0.0331
90 | CGGTCTAC | 0.00094
91 | CGTTAGTA | 0.102
92 | AGATTGTC | 0.0868
93 | GGAGTCAA | 0.0244
94 | ACCAGAGA | -0.103
95 | GGCGAATA | 0.176
96 | GCACTAAA | 0.108
97 | GTTAACGA | -0.135
98 | ACTGGACG | -0.0828
99 | CAGCTGGA | -0.0501
100 | CTATCACC | -0.0837
101 | AGATCCCA | -0.114
102 | AGACGCTC | -0.23
103 | CTTCTTGA | -0.153
104 | CTTTACAA | -0.0727
105 | AAATACGT | -0.122
106 | CTCTGCGA | -0.174
107 | CTCGTTAC | -0.257
108 | TATGTCGA | -0.0353
109 | AAGGCTCC | -0.268
